According to the supplement of paper PMC3334620:
Over roughly 33,000 sequences, “E-score (-0.5 to 0.5)” has its median near -0.032; the highest 2% begin near 0.36. Some of the results follow.

The sequences below were run against T1, Sko1 (UniProt Q02100) (assay: PBM E-score (8-mer binding enrichment) (E-score (-0.5 to 0.5)); higher = stronger / more preferred TF binding; most listed sequences are background and not binding sites). Conditions: protein concentration: 200 nM; construct: GST-full length.
T1 sequence: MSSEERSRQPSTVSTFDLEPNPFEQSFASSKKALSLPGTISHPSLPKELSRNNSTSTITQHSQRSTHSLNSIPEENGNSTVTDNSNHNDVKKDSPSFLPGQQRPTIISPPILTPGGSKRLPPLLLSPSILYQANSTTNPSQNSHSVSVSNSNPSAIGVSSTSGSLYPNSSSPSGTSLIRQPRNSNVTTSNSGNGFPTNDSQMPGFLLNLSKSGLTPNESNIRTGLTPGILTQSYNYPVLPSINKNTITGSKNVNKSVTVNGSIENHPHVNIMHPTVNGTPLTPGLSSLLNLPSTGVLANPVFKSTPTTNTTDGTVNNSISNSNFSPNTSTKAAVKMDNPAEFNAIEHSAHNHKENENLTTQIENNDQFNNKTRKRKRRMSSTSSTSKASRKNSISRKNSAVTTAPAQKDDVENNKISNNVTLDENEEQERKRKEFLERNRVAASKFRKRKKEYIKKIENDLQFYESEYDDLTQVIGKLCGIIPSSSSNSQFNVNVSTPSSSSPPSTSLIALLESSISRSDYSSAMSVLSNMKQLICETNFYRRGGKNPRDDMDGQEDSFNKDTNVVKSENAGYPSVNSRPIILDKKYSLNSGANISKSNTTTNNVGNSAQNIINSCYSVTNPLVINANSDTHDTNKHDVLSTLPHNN
How it was run: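 E-scores (a modified Wilcoxon-Mann-Whitney statistic) were assigned by the Universal PBM Analysis Suite to every ungapped eight-base word pooled with its reverse complement. The input came from universal all-10-mer Agilent arrays made double-stranded by primer extension and probed with GST-tagged yeast transcription factors at about 100-200 nM. Fluorescent anti-GST detected bound protein, and masliner normalised the scans.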

Row | Sequence | PBM E-score
1 | CCCGTACA | -0.273
2 | GATAGCTA | -0.133
3 | CGACTGAC | 0.089
4 | CAAATATC | 0.109
5 | GTACCAGA | -0.0638
6 | TGGTTTAA | 0.17
7 | ATCTCGTG | -0.0602
8 | ATTCCCCC | -0.217
9 | ATCACTCC | -0.0415
10 | ATACGCAG | 0.296
11 | CACGCCCC | -0.295
12 | GCCAACAC | 0.025
13 | GAGCTGGA | -0.211
14 | GTGCAGTA | -0.26
15 | CAATCTTC | 0.0427
16 | AGATAGCG | 0.136
17 | AACGACCG | -0.162
18 | AGTAAATA | 0.13
19 | ATCTCTGC | -0.108
20 | CGACGCTC | -0.0536
21 | GTTTGCAA | 0.133
22 | AGGTTGTC | -0.167

Row | Sequence | PBM E-score
23 | CTGGGCCC | -0.232
24 | CTACGAGC | -0.0339
25 | CCTAGTCG | -0.116
26 | ATATTTTC | 0.0908
27 | ACGCTGTC | -0.0328
28 | AAGGCCTC | -0.153
29 | ACTCAAGA | -0.0785
30 | CTGCACAC | -0.129
31 | CGATTCGA | 0.0224
32 | CCGCGCAA | -0.0639
33 | ACACTAGT | -0.128
34 | AATGCCCC | -0.274
35 | AACCTGTG | -0.189
36 | AATTGGGA | 0.00396
37 | TAACGCTA | 0.118
38 | ATTTACTG | 0.14
39 | ATGGCTTG | -0.0941
40 | AACAATGT | 0.0572
41 | CACTCTGG | -0.14
42 | AGCCAATA | -0.0276
43 | GAGAAGGC | -0.252
44 | AAATAGTC | -0.101

Row | Sequence | PBM E-score
45 | CCATGGGG | -0.18
46 | CACTCCCC | -0.223
47 | GGAATCTA | 0.103
48 | CGAGGTGA | 0.101
49 | GACCGCCA | -0.172
50 | AACTTGGG | -0.046
51 | CGTGAGTA | 0.14
52 | AAGCTCGC | -0.0406
53 | CACCACCC | -0.226
54 | CAACCGCA | -0.251
55 | ATGATCTC | 0.145
56 | CGTACTTA | 0.28
57 | AGCGCTGG | -0.211
58 | AACTTCCA | -0.181
59 | AATCCATT | 0.183
60 | AGGCCGAT | -0.0587
61 | GATGCAGC | -0.0157
62 | ATACATCC | 0.0616
63 | CAATTTCC | -0.134
64 | CAACTAGG | 0.0291
65 | CTCCCTGA | -0.239
66 | AAGCTAAC | 0.0665

Row | Sequence | PBM E-score
67 | ATATTGAG | 0.0657
68 | CCGTCTTC | -0.306
69 | AATTGCCT | 0.0707
70 | ACGGAGAA | 0.055
71 | AGACCCAT | -0.0753
72 | CTACCTGA | 0.0807
73 | CACCAAAG | -0.0931
74 | ATGAACCC | -0.0618
75 | CACTTTGC | 0.0489
76 | CGGGAGCA | -0.238
77 | GGTGCAGA | -0.313
78 | GCAGCAAC | -0.0872
79 | TATGTCCA | -0.0359
80 | GAGGGGGC | -0.4
81 | ATACGCCC | -0.0909
82 | CATTACTA | 0.166
83 | AGGTTCTA | -0.0376
84 | ATCCACGA | 0.0828
85 | CAAGCAGC | -0.218
86 | ATGTTCAG | -0.125
